# Measurements: PubChem BioAssay AID686979 (National Center for Advancing Translational Sciences (NCATS), 2013)
# Where “and” joins values, the source holds several entries; their conditions need not be identical. Identical values can stand only once. Screen size: about 420,000 compounds; about 50,000 (12%) were called active. The shares of active, inactive and inconclusive entries below differ from those in the screen. Calls follow the shape of the dose curve; as a rule, active = well fitted inhibition curve with a large enough effect; inconclusive = small, poorly fitted or top-dose-only effect; inactive = flat fitted curve, though single readings scatter. No potency is given beside an inconclusive call; the fits are too rough.
# Test: qHTS for Inhibitors of human tyrosyl-DNA phosphodiesterase 1 (TDP1): qHTS in cells in presence of CPT; also: nearly all actives have a fitted effect of over 55% in size
# Conditions: chicken DT40 Tdp1-/-;hTDP1 cells + 20 nM CPT, ATP luminescence, 48 h; activity change, negative = growth inhibition: at 46.2 µM (top of the series) unless noted
# Procedure, shortened: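 Chicken DT40 Tdp1-/- cells complemented with human TDP1, 400 cells/well, exposed to compounds plus 20 nM camptothecin for at least 48 h at 37 C; viability read as ATP content by CellTiter-Glo luminescence.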
# % is scaled to controls: 0 for no effect and ±100 for the full control effect; potency is read from the fitted curve at half-maximal effect; tags tell the direction and shape of the fitted curve.
SMILES,Potency,"activity change, negative = growth inhibition"
COC(=O)C1=C(c2ccc(OC(F)(F)F)cc2)C[C@@H]2CC[C@H]1N2C(=O)N1CCOCC1,active: 2.59 µM,
CC(=O)N1CCN(Cc2ccc(Cl)nc2)CC1,,inactive: 14.7%
O=S(=O)(c1ccc(Cl)cc1)N1CC1c1ccccc1 (stereo unspecified),,inactive: -19.6%
C[C@]12CCC3[C@@H](CCC4=CC(=O)CC[C@@]43CO)C1CCC2=O (stereo partly specified),"inconclusive [inhibitor, full curve, poor fit]",
S=C(S)N1CCNCC1,,inactive: -13.6%
C[C@]12N[C@@H](Cc3ccccc31)c1ccccc12,inactive,
CC(=O)c1cn(Cc2ccccc2F)c2ccccc12,active: 8.2 µM,
CCN(CC)c1ccc2c(cc1=O)[C@@H](NC)CCc1cc(OC)c(OC)c(OC)c1-2,active: 1.16 µM,
CN1CCC(O)(c2ccc(F)cc2)C(C(=O)c2ccc(F)cc2)C1 (stereo unspecified),"inconclusive [inhibitor, single point]",
CCOP(=S)(OCC)SCn1c(=O)oc2cc(Cl)ccc21,"inconclusive [inhibitor, full curve, poor fit]",
COc1ccc(CCn2c(NN=C3CCCC3)nc3c2c(=O)[nH]c(=O)n3C)cc1,"inconclusive [inhibitor, single point]",
O=c1c2ccccc2nc(-c2cccs2)n1-c1ccccc1,"inconclusive [inhibitor, partial curve, poor fit]",
C[C@H]1C=CC(=O)O[C@H]1c1ccccc1,"inconclusive [inhibitor, single point]",
Cc1ccc2c(Cl)cc(Cl)c(OCC(=O)N(C(C)C)C(C)C)c2n1,active: 16.4 µM,
Cc1ccc(-n2c(O)c(/C=N/N3CCCCCC3)c(=O)[nH]c2=O)cc1C,,inactive: 11.5%
CCOC(=O)C(NS(=O)(=O)c1ccc(C)cc1)(C(F)(F)F)P(=O)(OCC(C)C)OCC(C)C (stereo unspecified),"inconclusive [inhibitor, single point]",
O=C(Nc1ccc(Cl)cc1)OC1CN2CCC1CC2 (stereo unspecified),,inactive: -16.7%
CCC(=O)OC1(Cc2ccc(CC)cc2)CC(C)N(C)CC1C (stereo unspecified),,inactive: -23.5%
Fc1cccc(CNCCc2c[nH]c3ccccc23)c1,"inconclusive [inhibitor, single point]",
COC(=O)[C@@]1(C)[C@H]2C(=O)N(Cc3ccccc3)C(=O)[C@H]2[C@H]2CN=C(SCc3ccc(Cl)cc3)N21,"inconclusive [inhibitor, single point]",
CC1(C)CN=C(Nc2ccccc2C(F)(F)F)S1,"inconclusive [inhibitor, partial curve]",
CC(C)NCC(O)COc1cccc2[nH]ccc12 (stereo unspecified),"inconclusive [inhibitor, single point]",
Cc1ccc(N)c(C(=O)c2ccc(Br)cc2)c1,"inconclusive [inhibitor, partial curve]",
[Cl-].[Cl-].[Hg+2],active: 0.75 µM,

SMILES,Potency,"activity change, negative = growth inhibition"
COc1ccc(CC2C(=O)NC(C)C(=O)N(C)C3C(=O)N(C)C(Cc4ccc(O)c(c4)Oc4ccc(cc4)C3O)C(=O)NC(C)C(=O)NC(C)C(=O)N2C)cc1 (stereo unspecified),active: 0.0164 µM,
CCc1ccc(CNC(=O)c2ccc3c(c2)N=C(C)c2cc(C)ccc2S3)cc1,active: 11.6 µM,
CN1C(=O)C(=Cc2ccc(N3CCCCC3)o2)C(=O)N(C)C1=S,"inconclusive [inhibitor, single point]",
CCOP(=O)(OCC)C1(O)C(=O)Nc2ccccc21 (stereo unspecified),,inactive: -3.86%
COc1ccc(C(c2nnnn2-c2c(C)cccc2C)N2CCC3(CC2)C(=O)NCN3c2ccccc2)cc1 (stereo unspecified),active: 14.6 µM,
C=CCC1=C(C)C(OC(=O)C2C(C=C(C)C)C2(C)C)CC1=O (stereo unspecified),"inconclusive [inhibitor, single point]",
COc1ccc(C2=NCC(=O)N(CC(=O)NCc3ccco3)c3sc4c(c32)CCCC4)cc1OC,"inconclusive [inhibitor, single point]",
CN(C)C(=O)Oc1ccc2oc(=O)cc(-c3cc4ccccc4o3)c2c1,,inactive: -23.2%
CCOc1cc(CNCCc2cccc(F)c2)ccc1OC,"inconclusive [inhibitor, single point]",
COCCCn1c(N)c(C(=O)NCCC(C)C)c2nc3ccccc3nc21,"inconclusive [inhibitor, single point]",
CCC(=NCc1cccnc1)c1c(O)n(Cc2ccccc2)c(=O)[nH]c1=O,,inactive: -10.6%
Cc1cc(NC(=O)C(Cl)(Cl)Cl)no1,,inactive: 23.6%
O=c1[nH]sc2cc(F)ccc12,active: 1.84 µM,
Cc1c(NC(=O)C(C)OC(=O)Cc2ccccc2)c(=O)n(-c2ccccc2)n1C (stereo unspecified),,inactive: 2.94%
CC(C)CN1Cc2cc(N3CCCCC3)ccc2-n2nncc2C1,"inconclusive [inhibitor, single point]",
CC(C)(C)NC(=O)NC(=O)CN1CC=C(c2ccccc2)CC1,active: 16.4 µM,
O=C(Nc1ccc(Br)cc1)c1nn(C23CC4CC(CC(C4)C2)C3)cc1Br,"inconclusive [inhibitor, single point]",
O=C1NC(=O)N(c2ccc3c(c2)OCO3)C(=O)/C1=C\c1ccc(-c2ccccc2C(=O)O)o1,,inactive: 9.32%
CCCCn1c(O)c(C(CC)=NCc2cc(OC)cc(OC)c2)c(=O)[nH]c1=O,"inconclusive [inhibitor, partial curve]",
CN(C)[C@@H]1C(=O)C(C(N)=O)=C(O)[C@@]2(O)C(=O)C3=C(O)c4c(O)cccc4[C@@](C)(O)C3C[C@@H]12 (stereo partly specified),active: 18.4 µM,
O=C(NCCSc1c(-c2ccc(F)cc2)[nH]c2ccccc12)c1ccc(S(=O)(=O)N2CCOCC2)cc1,active: 5.17 µM,
Cc1cccc(CN2CCc3nc(N4CCN(c5ccccn5)CC4)ncc3C2)c1,active: 14.6 µM,
CC[C@@H](C(=O)[C@@H](C)[C@@H](O)[C@H](C)[C@@H]1O[C@@H]([C@@H](CC)C(=O)O)CC[C@@H]1C)[C@H]1O[C@]2(C=C[C@@H](O)[C@]3(CC[C@@](C)([C@H]4CC[C@](O)(CC)[C@H](C)O4)O3)O2)[C@H](C)C[C@@H]1C,active: 2.37 µM and active: 580 nM,
CCn1c(O)c(/C=N/NC(=O)c2ccccc2)c(=O)[nH]c1=S,,inactive: -4.73%

SMILES,Potency,"activity change, negative = growth inhibition"
Cc1ccc(NC(=O)COc2ccc(-n3ccnc3)cc2)cc1Cl,"inconclusive [inhibitor, partial curve, poor fit]",
S=C(NCCc1ccccc1)N1Cc2cc(N3CCOCC3)ccc2-n2nncc2C1,"inconclusive [inhibitor, single point]",
C=CCSc1nc2c(c(-c3ccsc3)c1C#N)CN(C)CC2,"inconclusive [inhibitor, single point]",
COc1cc(/C=C/c2nc3ccccc3c(=O)n2-c2ccc(O)cc2)ccc1O,"inconclusive [inhibitor, single point]",
O=C(COc1ccccc1[N+](=O)[O-])N1CCN(CCc2ccncc2)CC1,,inactive: -16.4%
CN(C)S(=O)(=O)c1ccc(C(=O)NNc2nc(-c3ccccc3)c3cc(Br)ccc3n2)cc1,"inconclusive [inhibitor, single point]",
O=S(=O)(c1ccc(Cl)cc1)N1CCCCC1c1cccnc1 (stereo unspecified),"inconclusive [inhibitor, single point]",
COc1cccc(-n2c(SCC(=O)c3ccc(Cl)cc3)nc3c([nH]c4ccccc43)c2=O)c1,active: 3.66 µM,
c1ccc(N2CCCC3(CCNCC3)C2)nc1,"inconclusive [inhibitor, single point]",
COC(=O)C1=C(c2ccc3ccccc3c2)C[C@@H]2CC[C@H]1N2C(=O)N1CCC(O)CC1,"inconclusive [inhibitor, single point]",
Clc1ccc(Sc2oc(/C=N/n3cnnc3)cc2Br)cc1,"inconclusive [inhibitor, single point]",
O=C(Cc1ccccc1)c1ccccn1,"inconclusive [inhibitor, single point]",
COc1ccccc1OP(=O)(Nc1cccnc1)Oc1ccccc1OC,"inconclusive [inhibitor, partial curve]",
O=C(O)C1=CCCN(CCOC(c2ccc(C(F)(F)F)cc2)c2ccc(C(F)(F)F)cc2)C1,"inconclusive [inhibitor, partial curve, poor fit]",
O=C(c1ccccc1)C1NC1c1ccccc1 (stereo unspecified),,inactive: 12.6%
Cc1cccc(C)c1-n1nnnc1C(CCc1ccccc1)N1CCC(n2c(=O)[nH]c3ccccc32)CC1 (stereo unspecified),active: 5.8 µM,
O=C(Nc1ccc2c(c1)OCCO2)c1cccn(Cc2cccc([N+](=O)[O-])c2)c1=O,"inconclusive [inhibitor, single point]",
Cc1cccc(NC(=O)c2ccc(F)c(S(=O)(=O)N3CCN(c4ccc(F)cc4)CC3)c2)c1,"inconclusive [inhibitor, single point]",
CC(=O)c1ccc(N2CCN(c3ncccn3)CC2)c([N+](=O)[O-])c1,"inconclusive [inhibitor, single point]",
O=C(CCl)c1ccc(Cl)cc1Cl,active: 5.96 µM and active: 21.7 µM,
Cn1c(O)c(C(=Nc2ccccc2)SCc2ccccc2Cl)c(=O)n(C)c1=O,active: 5.8 µM,
COC(=O)c1cccc(N=Cc2c(O)n(Cc3ccc(F)cc3)c(=O)[nH]c2=O)c1,,inactive: 9.82%
C#C[C@]1(O)CC[C@H]2[C@@H]3CCC4=CC(=O)CCC4=C3C=C[C@@]21CC,active: 13.3 µM,
